The record followed here is patent US20220120736A1 (WHITEHEAD INSTITUTE FOR BIOMEDICAL RESEARCH, published 2022).

The target of this assay is T1, MED1-IDR-mCherry (human, UniProt Q15648 948-1574).
T1 construct: Recombinant from E. coli; Lacks the LXXLL motifs; also called mCherry-MED1-IDR
Nature of the assay: in vitro droplet assay, 10 uM each, 125 mM NaCl, 10% PEG-8000.

T1 sequence (Q15648 948-1574 limits assumed): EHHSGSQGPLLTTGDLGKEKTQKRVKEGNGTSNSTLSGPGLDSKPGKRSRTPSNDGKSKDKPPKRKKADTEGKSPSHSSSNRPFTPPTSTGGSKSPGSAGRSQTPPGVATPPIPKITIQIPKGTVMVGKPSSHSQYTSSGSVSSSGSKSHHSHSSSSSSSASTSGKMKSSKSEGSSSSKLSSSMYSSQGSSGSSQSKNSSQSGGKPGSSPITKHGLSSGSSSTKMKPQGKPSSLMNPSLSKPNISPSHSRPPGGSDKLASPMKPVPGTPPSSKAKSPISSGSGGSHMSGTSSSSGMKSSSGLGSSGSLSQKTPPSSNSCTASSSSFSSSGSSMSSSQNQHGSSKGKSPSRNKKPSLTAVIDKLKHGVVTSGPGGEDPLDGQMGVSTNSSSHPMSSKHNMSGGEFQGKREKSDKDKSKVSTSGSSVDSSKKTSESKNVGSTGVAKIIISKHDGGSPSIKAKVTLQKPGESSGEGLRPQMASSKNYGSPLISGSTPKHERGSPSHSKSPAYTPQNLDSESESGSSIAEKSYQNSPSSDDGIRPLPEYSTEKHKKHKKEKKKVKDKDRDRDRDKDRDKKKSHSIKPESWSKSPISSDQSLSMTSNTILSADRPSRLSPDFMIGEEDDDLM

B1: NANOG-GFP (other, not shown: large carriers; small tags and cut ends)
chain: MSVDPACPQSLPCFEASDCKESSPMPVICGPEENYPSLQMSSAEMPHTETVSPLPSSMDLLIQDSPDSSTSPKGKQPTSAEKSVAKKEDKVPVKKQKTRTVFSSTQLCVLNDRFQRQKYLSLQQMQELSNILNLSYKQVKTWFQNQRMKSKRWQKNNWPKNSNGVTQKASAPTYPSLYSSYHQGCLVNPTGNLPMWSNQTWNNSTWSNQTQNIQSWSNHSWNTQTWCTQSWNNQAWNSPFYNCGEESLQSCMQFQPNSPASDLEAALEAAGEGLNVIQQTTRYFSTPQTMDLFLNYSMNMQPEDV
In the case of B1, the binding result is given as “binds”.
